From PubChem BioAssay AID1461 (National Center for Advancing Translational Sciences (NCATS), 2008)
Where “and” joins values, the source holds several entries; their conditions need not be identical. Equal entries are not always repeated. Hit rate of the full screen: of about 220,000 compounds, about 2,300 (1%) were called active. This list was built around the results that the source calls inconclusive (neither active nor inactive); the mix of calls is not that of the screen. Calls follow the shape of the dose curve; as a rule, active = well fitted inhibition curve with a large enough effect; inconclusive = small, poorly fitted or top-dose-only effect, or effect the other way; inactive = no such curve, though single readings can be large or run the other way. Potencies of inconclusive entries are left out as doubtful fits.

The compounds below were run against Neuropeptide S receptor (Homo sapiens) (UniProt Q6W5P4) (assay: qHTS Assay for Antagonists of the Neuropeptide S Receptor: cAMP Signal Transduction). Settings: CHO-NPSR cells, cAMP TR-FRET, antagonist mode; activity change, negative = inhibition: at 38.3 µM (top of the series) unless noted.
Chain of UniProt Q6W5P4 (Q6W5P4 whole entry, looked up): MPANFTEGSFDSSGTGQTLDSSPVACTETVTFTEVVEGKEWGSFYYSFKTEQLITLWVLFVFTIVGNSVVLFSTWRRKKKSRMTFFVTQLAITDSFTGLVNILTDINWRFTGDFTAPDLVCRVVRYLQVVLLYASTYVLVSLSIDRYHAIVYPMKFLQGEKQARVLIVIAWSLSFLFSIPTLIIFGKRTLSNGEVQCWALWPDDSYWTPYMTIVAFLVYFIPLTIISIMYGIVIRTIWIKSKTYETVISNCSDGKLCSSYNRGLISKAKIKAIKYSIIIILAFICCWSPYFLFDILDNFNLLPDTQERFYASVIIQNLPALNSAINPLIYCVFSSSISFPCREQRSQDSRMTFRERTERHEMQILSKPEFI
% is scaled to controls: 0 for no effect and ±100 for the full control effect; potency is read from the fitted curve at half-maximal effect; tags tell the direction and shape of the fitted curve.
Also: nearly all actives have a fitted effect of over 50% in size.

| Compound | Potency | activity change, negative = inhibition |
| --- | --- | --- |
| COc1ccc(NS(=O)(=O)c2ccc(N3CCOCC3)c(NC(=O)c3ccco3)c2)cc1 | inactive |  |
| CCOC(=O)C1=C(C)Nc2ncnn2C1c1cccs1 (stereo not drawn) | inconclusive [inhibitor, single point] |  |
| CCc1ccc2oc(=O)cc(CN3CCN(c4ccc(F)cc4)CC3)c2c1 | inconclusive [inhibitor, partial curve, poor fit] |  |
| Cc1ccccc1N/C(=C(/C(Cl)=C(Cl)Cl)[N+](=O)[O-])n1nnc2ccccc21 | inactive |  |
| c1ccc2c(c1)NC1(CCCCC1)n1c-2nc2ccccc21 | inconclusive [activator, partial curve] |  |
| CCOc1ccc(C2=CS/C(=C(\C#N)c3nnc4n3CCCCC4)N2CC)cc1 | inconclusive [inhibitor, full curve] |  |
| Cc1ccc(O)c(C2=Nc3ccccc3C2(C)C)c1 | inconclusive [inhibitor, single point] |  |
| Cc1cccc(N=Cc2cc(Br)cc(Cl)c2O)c1 | inactive |  |
| CCCCC1(C)Nc2ccccc2-c2nc3ccccc3n21 (stereo not drawn) | inconclusive [activator, single point] |  |
| Cc1cc(C)n2c(SCc3ccc(Cl)cc3Cl)nnc2n1 | inconclusive [inhibitor, partial curve] |  |
| Cc1ccc(C(=O)NCCSc2ccc(Cl)cc2)cc1[N+](=O)[O-] | inconclusive [inhibitor, partial curve] |  |
| Cc1cc(SCCC(=O)O)nc2c(C)cccc12 | inconclusive [activator, single point] |  |
| COCCn1c(Cc2cccn2C)nnc1SCC(=O)NCc1ccc2c(c1)OCO2 | inactive |  |
| O=C(/C=C1\NC2(CCCC2)Cc2ccccc21)C(=O)N/N=C/c1ccc(O)c(O)c1 | active: 12.6 µM |  |
| COc1ccc(C2CC(c3ccc(Cl)cc3Cl)Nc3nc(N)nn32)cc1 (stereo not drawn) | inconclusive [inhibitor, full curve, poor fit] |  |
| CCC(=O)Nc1ccc(NC(=O)C23CC4CC(CC(C4)C2)C3)cn1 | inconclusive [inhibitor, single point] |  |
| O=c1c2ccccc2c(C=NCCCN2CCOCC2)c(O)n1Cc1ccccc1 | inconclusive [inhibitor, partial curve] |  |
| O=C(CCN1C(=O)c2ccccc2C1=O)Nc1ccc(-c2nc3ccccc3s2)cc1 | inactive |  |
| Cc1ccc(-c2cc(C(=O)Nc3ccc(S(=O)(=O)N4CC(C)OC(C)C4)cc3)[nH]n2)c(O)c1 (stereo not drawn) | inconclusive [inhibitor, single point] |  |
| Cc1ccc(Cn2nnc3c(=O)[nH]c(C4CCCN(C(=O)Nc5ccc(F)cc5F)C4)nc32)cc1 (stereo not drawn) | inconclusive [inhibitor, partial curve] |  |
| CC(C)(CSc1ncccn1)NS(=O)(=O)c1ccccc1 | inactive |  |
| O=[N+]([O-])c1cc(C(F)(F)F)ccc1NCCc1c[nH]c2ccccc12 | inconclusive [inhibitor, single point] |  |
| CC(C)(C)c1cc(C(=O)NN)n(Cc2ccc(F)cc2)n1 | inactive |  |

| Compound | Potency | activity change, negative = inhibition |
| --- | --- | --- |
| Cc1cccc(N=C2NC(=O)/C(=C/c3cccnc3)S2)c1C | inconclusive [inhibitor, single point] |  |
| CCOC(=O)c1ccccc1NC(=O)c1cc(S(=O)(=O)N2CCOCC2)ccc1F | inconclusive [inhibitor, partial curve] |  |
| O=C(N/N=C/C=C/c1ccccc1[N+](=O)[O-])c1cc(-c2cccnc2)nc2ccccc12 | inactive |  |
| O=C(CSc1nc(Nc2ccccc2)nc(N2CCOCC2)n1)Nc1ccccc1Cl | inconclusive [inhibitor, partial curve, poor fit] |  |
| COc1ccc(C2=NOC(C(=O)Nc3ccc(C)cc3)C2)cc1OC (stereo not drawn) | inactive |  |
| Cc1ccc(C(C)C)c(OCc2nn(CC(=O)c3ccc(OC(F)F)cc3)c3[n+]2CCCCC3)c1 | inconclusive [inhibitor, single point] |  |
| CC(=O)SCC[N+](C)(C)C | inactive |  |
| CCCC1=NN2C(=N)/C(=C\c3cc(C)n(Cc4ccccc4)c3C)C(=O)N=C2S1 | inactive |  |
| S=C1NC(c2ccccc2)=NCN1c1ccc(Br)cc1 | inconclusive [inhibitor, single point] |  |
| Cc1ccc(NC(=O)c2ccccc2OCC(=O)c2ccccc2)cc1 | inconclusive [inhibitor, partial curve] |  |
| CCOC(=O)Cc1cc(-c2ccc(F)cc2)nc2ccc3ccccc3c12 | inconclusive [inhibitor, single point] |  |
| O=C1NCN(c2ccccc2)C12CCN(CCCC(c1ccc(F)cc1)c1ccc(F)cc1)CC2 | active: 7.94 µM and active: 12.6 µM |  |
| Oc1ccc2ccccc2c1N=Nc1ccccn1 | active: 7.94 µM |  |
| Cc1nn(C(C)C(=O)NCC2CCCO2)c(C)c1[N+](=O)[O-] (stereo not drawn) | inactive |  |
| O=S(=O)(c1cccc(-c2cn3cccnc3n2)c1)N1CCOCC1 | inconclusive [activator, single point] |  |
| CC1CCN(c2c(NCC3CCC(C(=O)N4CCCCC4)CC3)c(=O)c2=O)CC1 (stereo not drawn) | inconclusive [inhibitor, single point] |  |
| CCOc1ccc(-c2cc(C)n3nc(C(N)=O)cc3n2)cc1 | inconclusive [activator, partial curve] |  |
| Cc1ccc(COc2ccccc2-c2cc(C(=O)N/N=C/c3cccnc3)[nH]n2)cc1 | inconclusive [activator, partial curve] |  |
| O=c1oc(-c2ccccc2F)nc2c1cnn2-c1ccccc1 | inconclusive [inhibitor, partial curve] |  |
| O=C1CCCC2=C1C(c1cccs1)Nc1ccc3ncccc3c12 (stereo not drawn) | inactive |  |
| CN(C)CCN1CC(O)=C(c2nc3ccccc3s2)C1=N |  | inactive: -4.03% [at 7.67 µM] |
| O=C(c1cccc(C(=O)N2CCN(c3ccccc3F)CC2)c1)N1CCN(c2ccccc2F)CC1 | inconclusive [inhibitor, partial curve, poor fit] |  |
| CN(Cc1c(F)cccc1Cl)c1ccc(S(=O)(=O)N2CCOCC2)cn1 | inconclusive [inhibitor, partial curve] |  |

| Compound | Potency | activity change, negative = inhibition |
| --- | --- | --- |
| CCOC(=O)c1c(NC(=O)COC(=O)Cn2c(C)nc3ccccc32)sc2c1CCCC2 | inactive |  |
| Cc1c(NC(=S)N/N=C/C=C/c2ccccc2)c(=O)n(-c2ccccc2)n1C | inconclusive [activator, full curve] |  |
| CCCCNC(=O)CSc1nc2n[nH]c(C)c2c(=N)n1-c1cccc(Cl)c1C | inconclusive [activator, partial curve, poor fit] |  |
| O=C(Nc1ccc2c(c1)OCO2)c1nn(-c2ccccc2)c(=O)c2ccccc12 | inconclusive [inhibitor, single point] |  |
| CCCCCc1cc(=O)oc2c(C(CCN3CCCC3)c3cc(OC)c(OC)c(OC)c3)c(OC)cc(OC)c12 (stereo not drawn) | inconclusive [inhibitor, single point] |  |
| COc1cccc(C(=O)N/N=c2\oc3c(OC)cccc3cc2C(=O)NCc2ccccc2)c1 | inconclusive [activator, full curve, poor fit] |  |
| CSc1nnc2c3ccccc3n(CCc3ccccc3)c2n1 | inconclusive [inhibitor, single point] |  |
| C#CC(CO)N(CCN(Cc1ccccc1)C(C#C)CO)Cc1ccccc1 (stereo not drawn) | inconclusive [inhibitor, single point] |  |
| Cc1ccc(CN(C(=O)Cn2nnc3ccccc32)C(C(=O)NCc2ccco2)c2cccs2)cc1 (stereo not drawn) | inconclusive [inhibitor, partial curve] |  |
| CCOC(=O)C1=C(C)N(c2ccc(C)c(C)c2)C(=O)/C1=C\c1ccco1 | inconclusive [inhibitor, single point] |  |
| Cc1cccc(NC2=C/C(=N/S(=O)(=O)c3cccs3)c3ccccc3C2=O)c1 | active: 5.01 µM |  |
| Cc1ccc(-n2c(=O)c3c4c(sc3n(Cc3cc(=O)n5ccccc5n3)c2=O)CCC4)cc1C | inactive |  |
| Cc1[nH]c2ccccc2c1/C=N/Nc1ccc([N+](=O)[O-])cc1S(=O)(=O)Nc1ccc(Cl)cc1 | inconclusive [inhibitor, single point] |  |
| Cc1nonc1OCCN1CCN(c2ccccc2[N+](=O)[O-])CC1 | inactive |  |
| Cc1cc2nc(-c3cccnc3SCC(=O)NCc3ccco3)[nH]c2cc1C | inconclusive [activator, partial curve] |  |
| O=[N+]([O-])c1nn(-c2ccc3c(c2)OCCO3)n(O)c1=Nc1ccccc1 | inactive |  |
| O=C(CSc1ncnc2c1oc1ccccc12)Nc1nccs1 | inconclusive [activator, full curve] |  |
| CC1CN(c2nc(Nc3ccccc3)nc(N)c2[N+](=O)[O-])CC(C)O1 (stereo not drawn) | inconclusive [inhibitor, single point] |  |
| CCOc1ccc(S(=O)(=O)N2c3ccccc3CC2C)cc1 (stereo not drawn) | inconclusive [activator, partial curve, poor fit] |  |
| CN1C2CCC1/C(=C\c1ccccc1)C(=O)/C2=C\c1ccccc1 | inconclusive [inhibitor, partial curve] |  |
| C(=N\Nc1nc2ccccc2s1)/c1cccs1 | inconclusive [inhibitor, single point] |  |
| COc1ccccc1-c1cc(C(=O)Nc2c(F)cc(F)cc2Br)no1 | inconclusive [inhibitor, single point] |  |
